From PubChem BioAssay AID463173 (ICCB-Longwood Screening Facility, Harvard Medical School, 2010)
About 1,700 (3.3%) of roughly 52,000 compounds were called active. No stated cut-off is given here; in the data, active means survival mostly below about 52% (no sharp cut-off); inactive means mostly above about 56%. The list shows a part of the results.

Tested on: Wild type
Test: growth inhibition of S. aureus wild type versus tarO mutant, primary screen, teichoic acid synthesis inhibitors, RN4220, OD600 (AID 463173)
Conditions: S. aureus RN4220 wild type/DeltatarO growth, OD600, 18 h, stronger effect = lower value, screened at 18.75 µg/mL (by protocol)

Compound	survival
COc1ccc(C(=O)c2oc3ccccc3c2NC(=O)c2cc(=O)c3ccc(C)cc3o2)cc1Cl	inactive: 87%
Cc1ccc(S(=O)(=O)CC(=O)Nc2nc3c(C)cc(C)cc3s2)cc1	inactive: 80%
Cc1cccc(C(=O)Nc2nnc(S(=O)(=O)N(C)Cc3ccccc3)s2)c1	inactive: 29%
CCCOc1ccc(C2c3c(-c4ccccc4O)n[nH]c3C(=O)N2CCc2ccccc2)cc1OCC (centres undefined)	inactive: 81%
COc1cccc(NC(=O)c2cccc3c(=O)c4c([nH]c23)CCCC4)c1	inactive: 73%
CCOc1ccc(OCC)c(NC(=O)c2cc(S(=O)(=O)N3CCc4ccccc43)cn2C)c1	inactive: 83%
CCOc1ccc2ncc3c(-c4ccc(C)cc4)nn(-c4cccc(F)c4)c3c2c1	inactive: 56%
O=S(=O)(c1cccc(Cl)c1)c1nnn2c1nc(NCc1ccc3c(c1)OCO3)c1sccc12	inactive: 80%
COc1ccc(-c2nc3c(c(SCC(=O)N4CCCCC4)n2)Cc2cc(C)ccc2O3)cc1	inactive: 80%
Cc1ccc(S(=O)(=O)NCC(c2ccco2)N2CCOCC2)cc1 (centres undefined)	inactive: 78%
CC(=O)Nc1ccc(/C=C/c2noc(-c3ccccc3O)n2)cc1	inactive: 86%
CCOC(=O)CSc1nc(-c2ccc(OCC)cc2)cc(C(F)(F)F)c1C#N	inactive: 69%
Cc1ccc(C)c(N2CCN(C(=O)Cn3cnc4onc(-c5ccc(F)cc5)c4c3=O)CC2)c1	inactive: 72%
CC(=O)c1ccc(N2CCN(S(=O)(=O)c3cc4[nH]c(=O)c(=O)[nH]c4cc3C)CC2)cc1	inactive: 66%
CCc1nnc(NC(=O)c2cc(=O)c3cc(C)ccc3o2)s1	inactive: 85%
CCN1C(=C(C#N)C#N)C=Cc2cc(C)ccc21	inactive: 112%
COc1ccccc1CNC(=O)C(=O)NCC(c1cccs1)S(=O)(=O)c1ccccc1 (centres undefined)	inactive: 124%
Cc1ccc2oc(=O)c3cc(C(=O)NCCCOC(C)C)sc3c2c1	inactive: 82%
COc1ccc(-n2c(SCC(=O)NCc3ccc(Cl)cc3)nc3ccsc3c2=O)cc1	inactive: 54%
COc1ccc(-n2nnnc2C2CCN(S(=O)(=O)c3cccc(C(F)(F)F)c3)CC2)cc1	inactive: 96%
COc1cccc(NC(=O)C(Cc2ccccc2)N2Cc3ccccc3C2=O)c1 (centres undefined)	inactive: 87%
Cc1ccc(NC(=O)CCCc2nc(-c3ccco3)no2)cc1Cl	inactive: 73%
COc1ccc(-c2noc(CCC(=O)N(C)c3cc(Cl)ccc3OC)n2)cc1	inactive: 20%

Compound	survival
CC(C)CCOc1ccc(C(=O)NCC2OCCc3ccccc32)cc1 (centres undefined)	inactive: 74%
CC(C)(C)C(=O)C1C2C3COC(O3)C(=O)C2C2C=Cc3ccccc3N21 (centres undefined)	inactive: 127%
COc1ccc(NS(=O)(=O)c2ccc(N3CCCCS3(=O)=O)cc2)cc1Cl	inactive: 83%
COc1cccc(-n2c(=O)c3cc(OC)c(OC)cc3n(CC(=O)Nc3ccc(F)cc3)c2=O)c1	inactive: 73%
CCCn1c2ccc(F)cc2c2nnc(SCCN3CCCCC3)nc21	inactive: 145%
CCC(=O)N1CCc2cc(Br)cc(S(=O)(=O)CCC(=O)Nc3cccc(Cl)c3)c21	inactive: 75%
CCCc1cnc2c(c1SCC(=O)Nc1ccccc1OCC)c(=O)n(C)c(=O)n2C	inactive: 64%
COc1cc(NC(=O)c2cccc(Cl)c2Cl)ccc1NC(=O)c1cc2ccccc2o1	inactive: 83%
CCS(=O)(=O)N1CCCc2cc(C(=O)Nc3cccc(C(C)=O)c3)ccc21	inactive: 98%
CCOc1ccc(C(=O)N(Cc2ccc(C(C)C)cc2)Cc2ccco2)cc1	inactive: 78%
O=S(=O)(N1CCCCC1)N1CCNCC1	inactive: 116%
Clc1ccc(-c2nnn3c2nc(NC2CCCCC2)c2ccccc23)cc1	inactive: 57%
CCOc1ccc(Nc2ncnc3c2c(-c2ccccc2)cn3-c2cccc(C)c2)cc1	inactive: 115%
Cc1cc2c(cc1NS(=O)(=O)c1ccc(Br)cc1)n(C)c(=O)c(=O)n2C	inactive: 129%
CCCSCCCNC(=O)c1ccc(C)c(NC(=O)c2nsc3ccccc23)c1	inactive: 73%
COc1cccc(Cn2nc(SC)c(S(=O)(=O)c3ccccc3)c2N(C(C)=O)C(C)=O)c1	inactive: 71%
c1ccc2[nH]c(CSc3nnnn3C3CCCCC3)nc2c1	inactive: 98%
COc1ccc(CC(=O)N2CCc3cc(OC)c(OC)cc3C2COc2ccc(F)cc2)cc1 (centres undefined)	inactive: 93%
Cn1nc(-c2ccccc2F)c2cc(C(=O)NCc3ccccc3Cl)sc21	inactive: 117%
CCn1cc(C(=O)O)c(=O)c2cc(F)c(N3CCN(C(=O)c4ccccc4F)CC3)cc21	inactive: 54%
COc1ccc(N2CCN(S(=O)(=O)c3ccc(F)c(C(=O)Nc4ccccc4Cl)c3)CC2)cc1	inactive: 70%
COc1cc2c(cc1OC)C(c1cccc(Cl)c1)CC(=O)N2 (centres undefined)	inactive: 72%
CC(C)(C)OC(=O)N1CCC(c2c(C(=O)NCc3cccs3)cnn2-c2cccc(F)c2)CC1	active: -6%

Compound	survival
COc1ccc(Cl)cc1NC(=O)N1CCN(S(=O)(=O)c2ccc3c(ccn3C)c2)CC1	inactive: 101%
O=C(c1ccc(F)cc1)N1CCc2c([nH]c3ccccc23)C1c1ccc(Cl)cc1 (centres undefined)	inactive: 66%
CCc1ccc(OCCSc2nc3ccccc3n2CC(=O)N2CCCCC2)cc1	inactive: 70%
CCOc1ccc(NCc2cccn2-c2nnc(N3CCC(C(=O)NCc4ccccc4Cl)CC3)s2)cc1	inactive: 81%
c1ccc2c(c1)ncn2CCn1cnc2ccccc21	inactive: 104%
CC(C)Oc1ccc(NC(=O)C2COc3ccccc3O2)cc1 (centres undefined)	inactive: 109%
Cc1ccc(OCCSc2nc(-c3ccccc3C)nc3cc(=O)[nH]n23)cc1Cl	inactive: 124%
COc1ccccc1N1CCN(c2ncnc3c2c(-c2ccccc2)cn3-c2cccc(Cl)c2)CC1	inactive: 74%
CCc1nn(C(CC)C(=O)NCc2ccc(OC)c(OC)c2)c(=O)c2cc3oc(C)cc3n12 (centres undefined)	inactive: 87%
Cc1nn(-c2nc(-c3ccccc3)cc(C(F)(F)F)n2)c(C)c1Cl	active: -3%
CCOc1ccc2c(c1)c(=O)c(C(=O)c1ccc3c(c1)OCO3)cn2Cc1ccc(F)cc1	inactive: 79%
COc1cc(/C=C(\C#N)c2nc3ccc(C)cc3[nH]2)ccc1OCc1ccc(C)cc1	inactive: 68%
COc1ccc(S(=O)(=O)N2CCC(Oc3ccc(-n4cnnn4)cc3)CC2)cc1	inactive: 88%
COc1cccc(OC)c1C(=O)NCCc1sc(-c2cccc(F)c2)nc1C	inactive: 97%
O=C(c1cc2ccccc2oc1=O)N1CCCCCC1	inactive: 88%
CCCCNC(=O)c1cccc(NC(=O)c2nsc3ccccc23)c1	inactive: 59%
CCN(C(=O)c1cn(-c2cccc(OC)c2)c(=O)c2ccccc12)c1ccccc1C	inactive: 79%
c1ccc(-c2nc(-c3cccnc3)no2)cc1	inactive: 103%
CC(=O)Nc1ccc(NC(=O)c2nc(S(=O)(=O)Cc3ccc(F)cc3)ncc2Cl)cc1	inactive: 64%
COc1cccc(CNC(=O)c2cnc3c(-c4ccc(F)cc4)c(C)nn3c2C)c1	inactive: 136%
CCc1ccc(C2C(C(=O)Nc3ccccc3OC)=C(C)Nc3c(C(=O)Nc4ccc(C)cc4)cnn32)cc1 (centres undefined)	inactive: 74%
CC1CCCN(C(=O)CN2CCN(C(=O)c3ccco3)CC2)C1 (centres undefined)	inactive: 119%
COc1ccc(C(=O)Nc2ccccc2-c2nc3ccccc3s2)cc1OC	active: -6%

Compound	survival
Cc1ccc(C)c(NC(=O)CSc2nccn2-c2cccc(C)c2C)c1	inactive: 83%
COc1cccc(NC(=O)CN2C(=O)c3ccccc3Sc3ncccc32)c1	inactive: 91%
CCOc1ccc(C(=O)N(C)CC2COc3ccccc3O2)cc1 (centres undefined)	inactive: 98%
COc1ccc(NC2=C(c3ccc(C(F)(F)F)cc3)C(=O)c3ccccc32)cc1	inactive: 92%
CCc1ccc(C2C(C#N)=C(N)Oc3cc(N)ccc32)cc1 (centres undefined)	inactive: 102%
COc1ccccc1C(=O)Nc1c(C(=O)NC(C)(C)C)oc2ccccc12	inactive: 80%
Cc1ccc(-n2nc(C)c3c(C(F)(F)F)cc(-c4cccnc4)nc32)cc1Cl	inactive: 84%
COc1cc(OC)c(N(C)C(=O)Nc2cn(CC(C)C)c(=O)c3ccccc23)cc1Cl	inactive: 71%
CCCc1nn2c(=O)cc(COC(=O)CNC(=O)COc3ccc(C)cc3)nc2s1	inactive: 67%
CCOC(=O)c1ccc(NC(=O)c2cn3c4c(ccc(Cl)c4c2=O)OC(C)C3)cc1 (centres undefined)	inactive: 59%
CSc1nc2ccccc2n1CC(=O)Nc1c(C)cccc1C	inactive: 109%
Cc1ccc(-c2nc(C)c(CCNC(=O)c3ccccc3Br)s2)cc1	inactive: 71%
CC1CCN(c2ccc(-c3cccc(NS(=O)(=O)c4ccc(F)cc4F)c3)nn2)CC1	inactive: 135%
Cn1c(=O)c(C(=O)NC2CCCCCC2)c(O)c2ccccc21	inactive: 104%
CC1CCN(C(=O)CSc2nc(-c3ccc(F)cc3)cc(C(F)(F)F)n2)CC1	active: 11%
CCOC(=O)c1sc(NC(=O)c2c(-c3ccccc3)c(-c3ccccc3)nn(C)c2=O)nc1C	inactive: 71%
Cc1cccc(-n2c(=O)c3ccccc3n(Cc3ccc(F)cc3)c2=O)c1	inactive: 81%
CCc1ccc(Nc2nc3ccccc3nc2NS(=O)(=O)c2ccccc2)cc1	inactive: 46%
COc1ccc(N(C)C(=O)Cn2cc(S(=O)(=O)N3CCN(c4ccccc4F)CC3)c3ccccc3c2=O)c(OC)c1	inactive: 99%
Cc1ccc(NC(=O)/C=C/c2ccccc2Cl)cc1Cl	inactive: 97%
